These results are taken from the supplement of paper PMC9334596.

Several values for one entry are separate records, joined by “and”; a condition that tells them apart may be missing. Equal entries are not always repeated. Over roughly 5,300 compounds, “PER2::LUC luminescence relative to vehicle control” has its median near 0.96; the highest 2% begin near 1.3. This is one part of the list.

The test concerns mPer2Luc MEF. Nature of the test: PER2::LUC luminescence relative to vehicle control (fold of vehicle); higher = higher PER2::LUC reporter signal. Particulars: 10 µM. In outline: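 In 384-well plates, ~3000 mPer2Luc reporter mouse embryonic fibroblasts per well were cultured in DMEM with 10% FBS at 37 °C and 5% CO2 for 48 h before compounds from commercial libraries were added at 10 μM. ONE-Glo luciferase readings were taken 24 h and 30 h after treatment. Each value is PER2::LUC luminescence given as fold of vehicle control.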

In the case of `O=c1[nH]ccc2cc(OC3CCNCC3)ccc12`, the “PER2::LUC luminescence” value was found to be 0.7 (time after treatment 24 h) and 0.768 (time after treatment 30 h).

Regarding `O=C(OC[C@H]1O[C@@H](OC(=O)c2cc(O)c(O)c(OC(=O)c3cc(O)c(O)c(O)c3)c2)[C@H](OC(=O)c2cc(O)c(O)c(OC(=O)c3cc(O)c(O)c(O)c3)c2)[C@@H](OC(=O)c2cc(O)c(O)c(OC(=O)c3cc(O)c(O)c(O)c3)c2)[C@@H]1OC(=O)c1cc(O)c(O)c(OC(=O)c2cc(O)c(O)c(O)c2)c1)c1cc(O)c(O)c(OC(=O)c2cc(O)c(O)c(O)c2)c1`, the “PER2::LUC luminescence” value by setting is: (time after treatment 24 h) 0.819 and 0.4; (time after treatment 30 h) 0.789 and 0.554.

For `N=C(N)c1ccc(OCCCCCOc2ccc(C(=N)N)cc2)cc1`, the “PER2::LUC luminescence” value was 0.8 and 0.821 (time after treatment 24 h); 0.848 and 0.8 (time after treatment 30 h).

For the molecule `Oc1ccc([C@H]2COc3cc(O)ccc3C2)cc1`, the “PER2::LUC luminescence” value reads like this: (time after treatment 24 h) 1.09; (time after treatment 30 h) 1.25.

Consider `Fc1ccc(C(c2ccc(F)cc2)N2CCN(C/C=C/c3ccccc3)CC2)cc1`, for which the “PER2::LUC luminescence” value is 0.842 and 0.7 (time after treatment 24 h); 0.666 and 0.796 (time after treatment 30 h).

`CN1CCc2c(c3ccccc3n2Cc2ccccc2)C1`: the “PER2::LUC luminescence” value by setting is: (time after treatment 24 h) 0.75 and 0.664; (time after treatment 30 h) 0.663 and 0.737.

For the molecule `COc1ccc2oc(-c3ccccc3OC)cc(=O)c2c1`, the “PER2::LUC luminescence” value is, setting by setting: (time after treatment 24 h) 1.38; (time after treatment 30 h) 1.61.

On to `Cc1ccc(Nc2c(F)cccc2Cl)c(CC(=O)O)c1`, for which the “PER2::LUC luminescence” value runs as follows: (time after treatment 24 h) 1.09; (time after treatment 30 h) 1.21.

With `COc1cccc2c1[C@@H]1CN(CCCCn3c(=O)[nH]c4c(sc5ncc(-c6ccccc6)nc54)c3=O)C[C@@H]1CO2`, the “PER2::LUC luminescence” value runs as follows: (time after treatment 24 h) 0.746; (time after treatment 30 h) 0.635.

In the case of `O=C([C@@H](Cc1cccc(C(F)(F)F)c1)NS(=O)(=O)c1cc(F)c2c(c1)CCNC2)N1CCCC1`, the “PER2::LUC luminescence” value (time after treatment 24 h) was 0.77 and the “PER2::LUC luminescence” value (time after treatment 30 h) is 0.798.

For `CC1(C)CO[C@@H](CC(=O)O)CN1`, the “PER2::LUC luminescence” value (time after treatment 24 h) was 0.97 and the “PER2::LUC luminescence” value (time after treatment 30 h) amounted to 0.984.

As to `N=C(N)NC(=N)Nc1ccccc1`, the “PER2::LUC luminescence” value by setting is: (time after treatment 24 h) 1.04; (time after treatment 30 h) 0.931.

With `Nc1nc(Cl)nc2c1ncn2[C@H]1C[C@H](O)[C@@H](CO)O1`, the “PER2::LUC luminescence” value by setting is: (time after treatment 24 h) 0.628 and 0.512; (time after treatment 30 h) 0.458 and 0.375.

As for `CN[C@@H]1[C@H](O[C@H]2[C@H](O[C@H]3[C@H](O)[C@@H](O)[C@H](N=C(N)N)[C@@H](O)[C@@H]3N=C(N)N)O[C@@H](C)[C@]2(O)C=O)O[C@@H](CO)[C@H](O)[C@H]1O`, the “PER2::LUC luminescence” value is 1.17 (time after treatment 24 h) and 1.02 (time after treatment 30 h).

Turning to `Cc1ccc2c(Br)cc(Br)c(OC(=O)c3ccccc3)c2n1`, the “PER2::LUC luminescence” value reads like this: (time after treatment 24 h) 0.346; (time after treatment 30 h) 0.49.

With `Cc1cccc(C(=O)O)c1O`, the “PER2::LUC luminescence” value (time after treatment 24 h) is 1.05 and the “PER2::LUC luminescence” value (time after treatment 30 h) turned out to be 1.03.

Turning to `O=C(C=Cc1ccccc1)NC(NC(=S)Nc1ccc(Cl)cc1)C(Cl)(Cl)Cl` (stereo not given), the “PER2::LUC luminescence” value (time after treatment 24 h) amounted to 0.764 and the “PER2::LUC luminescence” value (time after treatment 30 h) was 0.752.

On to `COc1cc(-c2coc3cc(OCc4ccccc4)c(OC)c(O)c3c2=O)cc(OCc2ccccc2)c1OC`, for which the “PER2::LUC luminescence” value was 0.972 (time after treatment 24 h) and 0.937 (time after treatment 30 h).

Take `OCCOCCN1CCN(C2=Nc3ccccc3Sc3ccccc32)CC1`: the “PER2::LUC luminescence” value (time after treatment 24 h) was 1.02 and 0.943 and 0.96; the “PER2::LUC luminescence” value (time after treatment 30 h) is 0.895 and 0.94 and 0.887.

Turning to `Cc1cc(O)c(C)c(O)c1C(=O)O`, the “PER2::LUC luminescence” value is, setting by setting: (time after treatment 24 h) 0.96; (time after treatment 30 h) 0.947.

For the molecule `COc1cc(-c2oc3cc(O)ccc3c(=O)c2O)ccc1O`, the “PER2::LUC luminescence” value (time after treatment 24 h) is 1.13 and the “PER2::LUC luminescence” value (time after treatment 30 h) came out at 1.2.

As to `O=C(Nc1cccc(C(F)(F)F)c1)Nc1cc(Cl)ccc1C(=O)O`, the “PER2::LUC luminescence” value is, setting by setting: (time after treatment 24 h) 1.07; (time after treatment 30 h) 1.

As to `Cc1nc(Nc2cnn(C3CCNCC3)c2)nc2c1N(C)C(=O)c1cc3ccccc3cc1N2C`, the “PER2::LUC luminescence” value was 0.398 (time after treatment 24 h) and 0.47 (time after treatment 30 h).

For the molecule `C[C@H](NC(=O)CNC(=O)[C@@H](NC(=O)[C@H](Cc1ccccc1)NC(=O)CNC(=O)CNC(=O)[C@@H](N)Cc1ccccc1)[C@@H](C)O)C(=O)N[C@@H](CCCN=C(N)N)C(=O)N[C@@H](CCCCN)C(=O)N[C@@H](CO)C(=O)N[C@@H](C)C(=O)N[C@@H](CCCN=C(N)N)C(=O)N[C@@H](CCCCN)C(N)=O`, the “PER2::LUC luminescence” value (time after treatment 24 h) was found to be 1.02 and the “PER2::LUC luminescence” value (time after treatment 30 h) turned out to be 0.922.

On to `CC1(C)S[C@@H]2[C@H](NC(=O)[C@H](N)c3ccc(O)cc3)C(=O)N2[C@H]1C(=O)O`, for which the “PER2::LUC luminescence” value (time after treatment 24 h) is 1.13 and 0.881 and 1.16; the “PER2::LUC luminescence” value (time after treatment 30 h) is 0.997 and 0.986 and 1.12.

Regarding `Cn1cnc2c(NCc3ccccc3)nc(NCCO)nc21`, the “PER2::LUC luminescence” value by setting is: (time after treatment 24 h) 1.18; (time after treatment 30 h) 1.08.

In the case of `Cc1cc(C(=O)NOCCO)c(Nc2ccc(I)cc2F)n(C)c1=O`, the “PER2::LUC luminescence” value reads like this: (time after treatment 24 h) 0.337; (time after treatment 30 h) 0.248.

Consider `O=C(c1c2ccccc2cc2ccccc12)N1CCC(N2CCC[C@@H](C(=O)N3CCOCC3)C2)CC1`, for which the “PER2::LUC luminescence” value came to 0.752 (time after treatment 24 h) and 0.65 (time after treatment 30 h).

On to `COc1cccc2c1C(=O)c1c(O)c3c(c(O)c1C2=O)C[C@@](O)(C(=O)CO)C[C@@H]3O[C@H]1C[C@H](N)[C@H](O)[C@H](C)O1`, for which the “PER2::LUC luminescence” value (time after treatment 24 h) stood at 1.26 and the “PER2::LUC luminescence” value (time after treatment 30 h) stood at 1.18.

For the molecule `NC1CCN(O)C1=O` (single isomer, unassigned; (+)), the “PER2::LUC luminescence” value stood at 0.99 (time after treatment 24 h) and 0.883 (time after treatment 30 h).

On to `CCC(=O)O[C@@H](O[P@](=O)(CCCCc1ccccc1)CC(=O)N1C[C@H](C2CCCCC2)C[C@H]1C(=O)O)C(C)C`, for which the “PER2::LUC luminescence” value worked out at 0.617 (time after treatment 24 h) and 0.741 (time after treatment 30 h).

As for `O=c1cc(-c2ccc(O)cc2)oc2cc(O)c([C@@H]3O[C@H](CO)[C@@H](O)[C@H](O)[C@H]3O)c(O)c12`, the “PER2::LUC luminescence” value (time after treatment 24 h) worked out at 0.972 and the “PER2::LUC luminescence” value (time after treatment 30 h) amounted to 0.983.

With `Cc1cc2c(cc1S(N)(=O)=O)S(=O)(=O)CCC2`, the “PER2::LUC luminescence” value runs as follows: (time after treatment 24 h) 0.927; (time after treatment 30 h) 1.05.

Turning to `CC1(C)CC[C@]2(C)CC[C@]3(C)C(=CC[C@@H]4[C@@]5(C)CC[C@H](O)C(C)(C)[C@@H]5CC[C@]43C)[C@@H]2C1`, the “PER2::LUC luminescence” value by setting is: (time after treatment 24 h) 1.09; (time after treatment 30 h) 0.999.

Regarding `CN1CCc2cc(O)c(O)cc2C(c2ccccc2)C1` (stereo not given), the “PER2::LUC luminescence” value is, setting by setting: (time after treatment 24 h) 0.893; (time after treatment 30 h) 0.746.

As to `Clc1cnccn1`, the “PER2::LUC luminescence” value is 0.97 (time after treatment 24 h) and 0.951 (time after treatment 30 h).

Take `CC(C)OC(=O)[C@H](C)N[P@](=O)(OC[C@H]1O[C@@H](n2ccc(=O)[nH]c2=O)[C@](C)(F)[C@@H]1O)Oc1ccccc1`: the “PER2::LUC luminescence” value came to 1.07 (time after treatment 24 h) and 0.997 (time after treatment 30 h).

For the molecule `NCCNCCNCCNCCN`, the “PER2::LUC luminescence” value is, setting by setting: (time after treatment 24 h) 1.04; (time after treatment 30 h) 1.

On to `NC(=O)c1cc[n+](CC2=C(C(=O)O)N3C(=O)[C@@H](NC(=O)[C@@H](c4ccccc4)S(=O)(=O)[O-])[C@H]3SC2)cc1`, for which the “PER2::LUC luminescence” value (time after treatment 24 h) was 1.01 and the “PER2::LUC luminescence” value (time after treatment 30 h) came out at 1.01.

In the case of `CCCCCCCCCc1ccc(OCCOCCOCCOCCOCCOCCOCCOCCOCCO)cc1`, the “PER2::LUC luminescence” value by setting is: (time after treatment 24 h) 0.756; (time after treatment 30 h) 0.762.
